A lower IC50 marks a more sensitive line; where the fit passes the top or lowest dose, that dose stands as a limit. For AUC the same curve is integrated over the 256-fold range of doses and scaled to a fraction; it is 1 without any effect and falls as sensitivity rises. For part of these data: Where the top dose is marked as inferred, it was derived from the fitted curves, not read from the paper. For part of these data: An entry number marks a drug with two screens in the source, which often give different values.
How the values were obtained:
Assay in all cases: Viability of human cancer cell lines after 72 h of drug (GDSC screen)
[1] = compound: NC(=O)Nc1sc(-c2ccc(F)cc2)cc1C(N)=O [TPCA-1]; settings: top dose 20 µM
Description: (§1)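 Human cancer cell lines in 384-well plates, medium with 10% serum, drug for 72 h over a 256-fold dose range (nine 2-fold or five 4-fold steps up to the top dose). Adherent lines were fixed and stained with the nucleic acid dye Syto60, suspension lines read with resazurin; signal relative to control wells, capped at 0 and 100%. One two-parameter sigmoid per drug and line, fitted in a mixed model over all curves with the slope shared within a line.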

[2] = compound: C/C(=C\c1csc(C)n1)[C@@H]1C[C@@H]2O[C@]2(C)CCC[C@H](C)[C@H](O)[C@@H](C)C(=O)C(C)(C)[C@@H](O)CC(=O)O1 [Epothilone B]; settings: top dose 0.032 µM; top dose inferred
Description: as §1

[3] = compound: CC(C)CC(=O)Nc1n[nH]c2c1CN(C(=O)C1CCN(C)CC1)C2(C)C [PHA-793887]; settings: top dose 10.24 µM
Description: as §1

[4] = compound: CCCS(=O)(=O)Nc1ccc(F)c(C(=O)c2c[nH]c3ncc(Cl)cc23)c1F [PLX4720]; settings: top dose 10 µM
Description: as §1

[5] = compound: C[C@@H](N)c1ccc(C(=O)Nc2ccnc3[nH]ccc23)cc1 [Y-39983]; settings: top dose 20 µM; top dose inferred
Description: as §1

[6] = screen: GDSC drug entry 1371, top dose inferred

Cell Line | AUC [1] | IC50 [1] [µM] | AUC [2] | IC50 [2] [µM] | AUC [3] | IC50 [3] [µM] | AUC ([4]; screen: GDSC drug entry 1036) | IC50 ([4]; screen: GDSC drug entry 1036) [µM] | AUC [4, 6] | IC50 [4, 6] [µM] | AUC [5] | IC50 [5] [µM]
42-MG-BA (glioma, adherent) | 0.893 | > 20 | 0.846 | 0.0259 | 0.941 | > 10.2 | 0.985 | > 10 | 0.983 | > 10 | 0.948 | > 20
201T (lung adenocarcinoma, adherent) | 0.828 | 16.9 | 0.295 | 0.000451 | 0.913 | > 10.2 | 0.962 | > 10 | – | – | 0.956 | > 20
451Lu (melanoma, adherent) | 0.883 | 19.9 | 0.503 | 0.00204 | 0.949 | > 10.2 | 0.281 | 0.155 | 0.666 | 1.77 | 0.979 | > 20
639-V (bladder, adherent) | 0.948 | > 20 | 0.197 | 0.000304 | 0.931 | > 10.2 | 0.991 | > 10 | 0.986 | > 10 | 0.974 | > 20
647-V (bladder, adherent) | 0.846 | 14.7 | 0.573 | 0.00318 | 0.872 | 9.81 | 0.987 | > 10 | 0.986 | > 10 | 0.987 | > 20
769-P (kidney, adherent) | 0.83 | 14.1 | 0.353 | – | 0.745 | 3.48 | – | – | 0.968 | > 10 | 0.865 | > 20
786-0 (kidney, adherent) | 0.828 | 11 | 0.092 | < 0.000125 | 0.719 | 2.52 | 0.94 | > 10 | 0.987 | > 10 | 0.927 | > 20
5637 (bladder, adherent) | 0.823 | 10.4 | 0.351 | 0.000807 | 0.891 | 9.98 | 0.936 | > 10 | 0.962 | > 10 | 0.933 | > 20
8305C (thyroid, adherent) | 0.926 | > 20 | 0.53 | 0.00248 | 0.979 | > 10.2 | 0.716 | 3.12 | 0.804 | 6.95 | 0.981 | > 20
8505C (thyroid, adherent) | 0.877 | > 20 | 0.306 | 0.000549 | 0.822 | 6.46 | 0.926 | > 10 | 0.976 | > 10 | 0.966 | > 20
23132-87 (stomach, adherent) | 0.834 | 13.7 | 0.613 | 0.00415 | 0.808 | 5.55 | 0.986 | > 10 | 0.985 | > 10 | 0.909 | > 20
A172 (glioma, adherent) | 0.935 | > 20 | 0.506 | 0.00207 | 0.861 | 8.16 | 0.989 | > 10 | 0.987 | > 10 | 0.949 | > 20
A204 (rhabdomyosarcoma, adherent) | 0.833 | 18.6 | 0.562 | – | 0.682 | 2.42 | – | – | 0.96 | > 10 | 0.939 | > 20
A427 (non-small cell lung carcinoma, adherent) | 0.838 | 13.8 | 0.382 | 0.000941 | 0.956 | > 10.2 | 0.971 | > 10 | 0.985 | > 10 | 0.917 | > 20
A431 (skin, adherent) | 0.731 | 5.49 | 0.185 | 0.000241 | 0.979 | > 10.2 | 0.844 | 6.72 | 0.917 | > 10 | 0.927 | > 20
A673 (rhabdomyosarcoma, adherent) | 0.921 | > 20 | 0.577 | 0.00318 | 0.988 | > 10.2 | 0.956 | > 10 | 0.924 | > 10 | 0.987 | > 20
A2058 (melanoma, adherent) | 0.976 | > 20 | 0.371 | 0.000919 | 0.914 | > 10.2 | – | – | 0.934 | > 10 | 0.985 | > 20
A2780 (ovary, semi-adherent) | 0.54 | 1.61 | 0.529 | 0.00241 | 0.266 | 0.134 | 0.96 | > 10 | 0.983 | > 10 | 0.496 | 1.21
ABC-1 (lung adenocarcinoma, adherent) | 0.843 | 18.7 | 0.483 | 0.00178 | 0.8 | 6.2 | – | – | 0.961 | > 10 | 0.931 | > 20
ACHN (kidney, adherent) | 0.812 | 12.7 | 0.401 | 0.00103 | 0.953 | > 10.2 | – | – | 0.905 | > 10 | 0.954 | > 20
AGS (stomach, adherent) | 0.965 | > 20 | 0.532 | 0.00242 | 0.889 | 9.6 | 0.99 | > 10 | – | – | 0.985 | > 20
AN3-CA (endometrium, adherent) | 0.886 | > 20 | 0.316 | 0.000578 | 0.874 | > 10.2 | – | – | 0.97 | > 10 | 0.968 | > 20
ASH-3 (thyroid, adherent) | 0.984 | > 20 | 0.454 | 0.0015 | 0.987 | > 10.2 | 0.988 | > 10 | 0.987 | > 10 | 0.988 | > 20
AU565 (breast, adherent) | 0.976 | > 20 | 0.584 | 0.00349 | 0.891 | > 10.2 | 0.973 | > 10 | 0.982 | > 10 | 0.904 | > 20

Source: the supplement of paper PMC4967469
